This note sets out measurements from PubChem BioAssay AID360 (National Center for Advancing Translational Sciences (NCATS), 2006).

Among all 48,000 compounds or so, about 550 (1.1%) were called active. Roughly 4% stayed inconclusive and do not appear here. Rule as the data show it: active = potency below about 15 µM; inconclusive = mostly about 16 µM to 33 µM; inactive = weaker than that. This is one part of the list. Bounds are passed on as bounds.
Potency is read from the fitted curve at half-maximal effect.

The assay has as its target Lysosomal acid glucosylceramidase (Homo sapiens) (UniProt P04062). Kind of assay: Glucocerebrosidase.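 Also: the screen sought inhibitors.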 The settings on record: purified enzyme, resorufin glucoside fluorescence (screen aimed at inhibitors), 20 min. The gist of the method: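 Compounds titrated against 0.2 nM normal enzyme, 30 uM resorufin beta-D-glucopyranoside substrate, citrate/phosphate buffer with taurocholate and tween-20, pH 5.9. Reaction ran 20 min at room temperature; fluorescence (Ex 548/Em 600) gave AC50.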
Chain of UniProt P04062 (P04062 whole entry, looked up): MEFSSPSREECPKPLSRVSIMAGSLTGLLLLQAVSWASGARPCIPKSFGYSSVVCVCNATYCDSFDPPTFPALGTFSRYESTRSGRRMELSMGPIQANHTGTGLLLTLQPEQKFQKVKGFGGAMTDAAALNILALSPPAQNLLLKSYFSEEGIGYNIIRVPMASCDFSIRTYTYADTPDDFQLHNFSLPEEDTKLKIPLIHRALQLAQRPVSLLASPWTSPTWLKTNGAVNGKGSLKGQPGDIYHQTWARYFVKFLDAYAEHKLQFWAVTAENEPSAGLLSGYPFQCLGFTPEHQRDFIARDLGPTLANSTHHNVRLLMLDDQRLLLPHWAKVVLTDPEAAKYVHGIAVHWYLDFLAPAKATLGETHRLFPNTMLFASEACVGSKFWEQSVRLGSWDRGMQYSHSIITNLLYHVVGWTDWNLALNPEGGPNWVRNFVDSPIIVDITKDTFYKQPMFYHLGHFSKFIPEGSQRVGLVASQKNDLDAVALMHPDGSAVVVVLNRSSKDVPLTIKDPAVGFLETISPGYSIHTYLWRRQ
Consider `CCOc1ccc(NC(=O)CSc2nnc(C)n2CCCOC)cc1`, for which the Potency was inactive: > 76.9 µM.
For `CCC(=O)N1CCc2cc(Br)cc(S(=O)(=O)NCc3ccco3)c21` the value was inactive: > 76.9 µM; for `Cc1cc(C)c(C#N)c(SCc2ccc3c(c2)OCO3)n1`, inactive: > 76.9 µM.
As to `COC(=O)c1cnn(C(=O)c2cc(OC)ccc2Br)c1N`, the Potency is inactive: > 76.9 µM.
With `CC(C)COc1ccc(/C(O)=C2/C(=O)C(=O)N(CCN(C)C)C2c2ccncc2)cc1` (stereo not drawn), the Potency was inactive: > 76.9 µM.
For `O=C(O)c1ccccc1OCCOc1ccccc1` the value was inactive: > 76.9 µM.
For `C=CCn1c(Cc2csc(N)n2)nnc1SCc1ccc(C(=O)OC)cc1` the value was inactive: > 76.9 µM.
Turning to `Cc1nn2c(-c3cccc(NC(=O)CN4CCOCC4)c3)nnc2c2ccccc12`, the Potency is inactive: > 76.9 µM.
With `CC1CCCCC1NC(=O)C1CCN(S(=O)(=O)N2CCC3(CC2)OCCO3)CC1` (stereo not drawn), the Potency is inactive: > 76.9 µM.
`COc1ccc(CNC(=O)CSc2nnc(-c3ccc(NC(C)=O)cc3)n2C)cc1`: the Potency was inactive: > 76.9 µM.
With `COc1ccc(N2CCN(C(=O)C(CCSC)N=C3NS(=O)(=O)c4ccccc43)CC2)cc1` (stereo not drawn), the Potency is inactive: > 76.9 µM.
The result for `O=C1CC(Cc2ccc(Cl)cc2)C(=O)N1c1ccccn1` (stereo not drawn) reads inactive: > 76.9 µM.
Regarding `COc1cc(C(=O)NCCC(=O)NCCCN2CCCCC2C)cc(OC)c1OC` (stereo not drawn), the Potency was inactive: > 76.9 µM.
The result for `CC1Cc2ccccc2N1C(=O)c1cc2c(=O)n3ccccc3nc2n1C` (stereo not drawn) reads inactive: > 76.9 µM.
The result for `COC(=O)c1c(NC(=O)CN2CCN(c3ccccc3OC)CC2)c2cc(C)ccc2n1C` reads inactive: > 76.9 µM; that for `Cc1ccc(OC(C)c2nnc(N)s2)cc1Cl` (stereo not drawn), inactive: > 76.9 µM.
Take `CCCS(=O)(=O)N1CCC(C(=O)NC2CCCCC2C)CC1` (stereo not drawn): the Potency was inactive: > 76.9 µM.
The result for `CCOC(=O)c1ccc(NC(=O)CSc2nnnn2CCCO)cc1` reads inactive: > 76.9 µM.
With `COc1ccc(Cn2c(C3CC3)nc3ccc(NC(C)=O)cc3c2=O)cc1`, the Potency was inactive: > 76.9 µM.
The result for `CCOc1nc2ccccc2nc1NS(=O)(=O)c1ccccc1` reads inactive: > 76.9 µM; that for `Cc1cccc(C)c1NC(=O)Cn1nnc(-c2ccc(N3CCOCC3)cc2)n1`, inactive: > 76.9 µM; that for `CS(=O)(=O)NCCSCc1ccccc1`, inactive: > 76.9 µM.
The result for `CC1CC(C(F)(F)C(F)(F)F)n2nc(C(=O)O)cc2N1` (stereo not drawn) reads inactive: > 76.9 µM.
With `Cc1ccc2[nH]c(=O)c(CN(CC3CCCO3)S(=O)(=O)c3cccc4nsnc34)cc2c1` (stereo not drawn), the Potency was inactive: > 76.9 µM.
As for `O=C(Cn1cnc2c(oc3ccccc32)c1=O)NCc1ccco1`, the Potency was inactive: > 76.9 µM.
For `Cc1oc(-c2ccc(Cl)cc2)nc1CN1CCC(C(=O)NCc2ccco2)CC1` the value was inactive: > 76.9 µM.
On to `O=C(NC1CCCc2ccccc21)C1CCN(S(=O)(=O)c2cccc3nonc23)CC1` (stereo not drawn), for which the Potency was inactive: > 76.9 µM.
As for `OC(c1cccs1)c1nccc2ccccc12` (stereo not drawn), the Potency is inactive: > 76.9 µM.
As for `CCCn1c(SCC(=O)Nc2nccs2)nnc1-c1cccnc1`, the Potency was inactive: > 76.9 µM.
Consider `CCOC(=O)C1CCN(Cc2cn[nH]c2-c2ccccc2)CC1`, for which the Potency was inactive: > 76.9 µM.
The result for `CC(=O)Nc1ccc(NC(=O)C(C)Oc2ccccc2F)cc1` (stereo not drawn) reads inactive: > 76.9 µM; that for `COC(=O)c1cccc(NC(=O)CSc2nnc(COc3ccccc3)n2C)c1`, inactive: > 76.9 µM; that for `COCCNC(=O)NC(=O)COC(=O)C12CC3CC(CC(NC(C)=O)(C3)C1)C2`, inactive: > 76.9 µM.
The result for `CCC1(CC)NC(=O)N(CC(=O)OCC(=O)Nc2cc(C)ccc2C)C1=O` reads inactive: > 76.9 µM; that for `COc1ccccc1NC(=O)CSc1nnc(C2CCCCC2)o1`, inactive: > 76.9 µM; that for `O=c1[nH]c2cc3c(cc2cc1CN(CCc1ccccc1)Cc1nnnn1C1CCCC1)OCCO3`, inactive: > 76.9 µM.
On to `C=CCn1c(SCC(=O)c2cc(C)n(Cc3cccs3)c2C)nnc1-c1ccncc1`, for which the Potency is inactive: > 76.9 µM.
The result for `C=CCn1c(SCC(=O)Nc2ccc(N(C)C)cc2)nnc1-c1cccc(C)c1` reads inactive: > 76.9 µM; that for `CC(CC(=O)O)CC1=NS(=O)(=O)c2ccccc2N1` (stereo not drawn), inactive: > 76.9 µM.
For the compound `CC(=O)N1CCN(c2ccc(Oc3ncnc4sccc34)cc2)CC1`, the Potency entry was “inactive”.
With `COC(=O)c1ccccc1NC(=O)c1nc2nc(C)cc(C)n2n1`, the Potency was inactive: > 76.9 µM.
The result for `COc1ccc(-n2nnnc2-c2cccnc2)cc1` reads inactive: > 76.9 µM; that for `COc1ccc(O)c(-c2[nH]ncc2C(=O)c2ccccc2)c1`, inactive: > 76.9 µM; that for `O=S(=O)(c1ccc(F)cc1)N1CCN(c2ncnc3c2cnn3-c2ccccc2)CC1`, inactive: > 76.9 µM.
Take `CCCCc1c(O)c2ccccc2[nH]c1=O`: the Potency is inactive: > 76.9 µM.
`CC(C)Cc1n[nH]c(=O)[nH]1`: the Potency is inactive: > 76.9 µM.
The result for `O=C(O)c1ccccc1NCc1ccncc1` reads inactive: > 76.9 µM; that for `Cc1ccccc1OCCCC(=O)Nc1ccc2c(c1)OCO2`, inactive: > 76.9 µM.
Take `COc1ccc(OC)c(N(CC(=O)NCc2cccnc2)S(C)(=O)=O)c1`: the Potency is inactive: > 76.9 µM.
Consider `Cc1nnc(SCCCN2C(=O)c3ccccc3C2=O)o1`, for which the Potency was inactive: > 76.9 µM.
For `CC1=C(C(=O)OCc2ccccc2)C(c2ccccn2)c2c(n(C)c(=O)n(C)c2=O)N1` (stereo not drawn), the Potency is inactive: > 76.9 µM.
For `O=C(CSc1nnc(Cc2ccccc2)n1-c1cccc(Cl)c1)N1CCOCC1`, the Potency was inactive: > 76.9 µM.
For `COc1ccccc1-c1cc(C(F)(F)F)nc(S(=O)(=O)CCCC(=O)N2CCCCC2C)n1` (stereo not drawn) the value was inactive: > 76.9 µM; for `CSc1cccc(NC(=O)CSc2nc3ccccc3o2)c1`, inactive: > 76.9 µM.
With `Cc1cc(C)n2nc(SCC(=O)c3cc(C)n(-c4cc(C)on4)c3C)nc2n1`, the Potency was inactive: > 76.9 µM.
Turning to `O=C1c2ccccc2C(=O)N1CC1c2ccccc2CCN1S(=O)(=O)c1cnc[nH]1` (stereo not drawn), the Potency is inactive: > 76.9 µM.
The result for `CCn1c(CNc2ccc(C)cc2)nnc1SCC(=O)NCc1ccccc1` reads inactive: > 76.9 µM.
For `CCn1cc(C(=O)NC2CCCC2)c(=O)c2cc(S(=O)(=O)N3CCOCC3)ccc21` the value was inactive: > 76.9 µM.
